Measured values from patent US11458122B2, “Methods for treating diseases and nerve injuries” (CHILDREN'S HOSPITAL MEDICAL CENTER, priority 2017, dated 2022).

Assays:
[1] = system: human neurofibroma-derived Schwann cell lines SNF02.2 and SNF96.2; assay: Myelin gene expression in human SC lines by qRT-PCR; type: cell-based; conditions: SNF02.2 and SNF96.2, normalized to vehicle
Excerpt: (§1) PCR primer sequences are available upon request.

[2] = system: SCs isolated from neonatal rat sciatic nerve; assay: SC cultures treated with HDAC inhibitors: morphology, MPZ/phalloidin immunostaining, qRT-PCR; conditions: immunocytochemistry and qRT-PCR
Protocol: Rat SCs from sciatic nerves of newborn rats (1-2 days old) were isolated as described previously (Wu L M, et al. […] SCs were grown in DMEM/10% FBS (Life Technologies), supplemented with 10 ng/ml neuregulin 1 (NRG1 type III; 396-HB-050; R&D Systems), and 5 μM forskolin (Sigma, F6886), plus L-glutamine and penicillin/streptomycin, hereafter denoted as SC proliferation medium. Cells between passages 2 and 5 were used in all experiments. >95% SC purity was achieved, assessed by positive SOX10 and S100β immunoreactivity. To initiate differentiation, SCs were cultured in differentiation medium containing DMEM/0.5% FBS and 1 mM dibutyl cyclic AMP (Sigma, D0627) with L-glutamine and penicillin/streptomycin, for the length of time indicated in the text, depending on the assays used. Human neurofibroma-derived Schwann cell lines SNF02.2 (ATCC CRL-2885) and SNF96.2 (ATCC CRL-2884) were propagated in DMEM/10% FBS plus L-glutamine and penicillin/streptomycin. All tissue culture containers and coverslips were coated with 50 μg/ml poly-L-lysine (Sigma, P7890) in PBS for at least 30 min at room temperature and then rinsed with distilled water.
as §1

| Compound | transcript levels of myelination-associated genes EGR2, MBP and PMP22 [1] | expression of mature SC markers MPZ and PMP22 [2] |
| --- | --- | --- |
| Nc1cc(F)ccc1NC(=O)/C=C/c1cnn(C/C=C/c2ccccc2)c1 [RGFP966, (2E)-N-(2-Amino-4-fluorophenyl)-3-[(2E)-1-(3-phenyl-2-propen-1-yl)-1H-pyrazol-4-yl]-2-propenamide] | Upregulation | induction |
| Cc1ccc(NC(=O)CCCCCC(=O)Nc2ccccc2N)cc1 [PDA106, N1-(2-Aminophenyl)-N7-(4-methylphenyl)-heptanediamide] | Upregulation | induction |
